From the supplement of paper PMC11417369
± gives the standard deviation of the averaged measurements. The list shows a part of the results.

Test system: PfAP2-G AP2 domain (GST-tagged)
Experiment: gcPBM binding intensity (ln(normalized median fluorescence intensity)); higher = stronger DNA binding
Outline: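 Each value is the highest Masliner-normalised natural-log median intensity across replicate spots of either orientation of a probe. The probes were primer-extended double-stranded 36-bp intergenic genomic sequences on an Agilent 4 × 180k array, alongside negative controls, exposed for 1 h to GST-tagged P. falciparum DNA-binding domains expressed in E. coli. Bound protein was picked up with Alexa488 anti-GST antibody and scanned at 488 nm.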

Row | Sequence | gcPBM binding intensity (ln)
1 | AGTATATAATAATTTACACACAAAAAAATATCAGGA [CACACA_site3517] | 10.04 ± 0.021
2 | TGATTTATCTATATTTTATAAGTTATTTATTTTTTT [CACACA_negctrl_site1603] | 9.245 ± 0.021
3 | GGTGGCTAAATTACAACACACGACGGAATATTATAT [CACACA_site4114] | 10.05 ± 0.092
4 | AATATATGGTTTCATTATATTAAATTCAATTTAATG [CACACA_negctrl_site675] | 9.86 ± 0.18
5 | TTATTGTGTAAGATGATTTTCTTCGTCACTTTGAAA [CACACA_negctrl_site1814] | 9.685 ± 0.049
6 | AAAAATGTATGTATGGTGCAGTATTCATATCATTTT [GTGCAC_site9458] | 10.03 ± 0.021
7 | AAAATGAACAAACACACACACATATATATATATATA [CACACA_site2403] | 9.96 ± 0.35
8 | ATATTCTTGTTTAATACACACTGTAGTATTATAGAT [CACACA_site6341] | 10.3 ± 0.33
9 | TTTTTTAATATTTATTAATTAAACTTTGTTTTTGTT [XGTACX_negctrl_site454] | 9.38 ± 0.28
10 | GACAAATAATAAAAGGTGCATTATACTTAACAAAAA [GTGCAC_site9624] | 10.1 ± 0.28
11 | AAAAAACACTTAAGGTGTACCTTTTAATATAAGTAT [XGTACX_site2397] | 11.2 ± 0.64
12 | TCTTGAAAAAGAATCAATCGGTCGACAAAAAAAAAA [CACACA_negctrl_site1099] | 10.4 ± 0.24
13 | TACATTCGGAGTAAAAAAAAATTTATACAATTACTT [XGTACX_negctrl_site29] | 9.78 ± 0.014
14 | AACCATAACTCATATGCACACATAAATATTACATAT [CACACA_site9273] | 10.17 ± 0.071
15 | AAAGTATAAATAAATACACACATATATATATATATA [CACACA_site2892] | 10 ± 0.16
16 | TGTGTATATAAATAATGTACATATATATTTTTTTAT [XGTACX_site7341] | 11.2 ± 0.67
17 | GTAAAAAAAAAAAAAAGTACATTATACATATATTTA [XGTACX_site5447] | 11.3 ± 0.81
18 | TCATACAATATTAAATGTACATATATATATATATAT [XGTACX_site8828] | 11.2 ± 0.61
19 | ATATTAAAGCCTTTTTGTACATATAAATAAACATAG [XGTACX_site4667] | 10.9 ± 0.57
20 | TATATATTATATATATGTACATAATTCCATGTTTAG [XGTACX_site3943] | 11.2 ± 0.81
21 | AACTCTTAAAAATAAACATGCAAATATTTACCTTCT [TGCATGCA_site986] | 9.72 ± 0.12
22 | ATTTTTTTTTTTTTTTTTCATTTTTTTTTTTTTTTT [CACACA_negctrl_site1204] | 10 ± 0.24

Row | Sequence | gcPBM binding intensity (ln)
23 | GTGTATTTGGTGCGCACACACATGCAAAAAGAAATA [CACACA_site4768] | 10.8 ± 0.61
24 | TGTATAATCATATATACACACACATATATATATATA [CACACA_site8674] | 10.2 ± 0.41
25 | TTATATAAAAAAAAATGTACATATAATTGGTAAATT [XGTACX_site5180] | 11.3 ± 0.76
26 | TTTTTTTTCTTTTTTTTTTTTTCAAAAGCTTATAAT [CACACA_negctrl_site1526] | 9.82 ± 0.27
27 | TTGAAAATAATATGAAGTACATTATTTTTTTTTAAT [XGTACX_site4499] | 11.1 ± 0.74
28 | AAAAATATTTAAAATACACACATATATATAATATAT [CACACA_site2006] | 9.76 ± 0.13
29 | TTATATTTATATATTTGTACGTATGTATATAATTCA [XGTACX_site2993] | 11.4 ± 0.97
30 | ATTCTAATAATATATACACACACATATATATTTATA [CACACA_site8629] | 9.96 ± 0.12
31 | CTTTTTTAAAATATTTAACACACAATTTTAATGCAT [CACACA_site9303] | 10.1 ± 0.21
32 | AAAATTAGGAGACATGCATGTAACGATAAATATAAC [TGCATGCA_site148] | 10.14 ± 0.071
33 | AAAAAATGAAAATATTCCAAAATAGAGGGAAATGTA [GTGCAC_negctrl_site572] | 9.66 ± 0.13
34 | TATGTGATAACACGCACACAAATGTATTTAATTTAT [CACACA_site5435] | 9.995 ± 0.035
35 | CACAAAAATGTAATCACACATATATATATATATATA [CACACA_site5818] | 10.5 ± 0.11
36 | GTTACATACATATACACACACATATATATATATATA [CACACA_site901] | 10.06 ± 0.042
37 | TAAATAATTCTTTTAGTACACACGAATAAGCAGATA [CACACA_site305] | 11.2 ± 0.87
38 | TAAAAAAAATCATTCACACATATATGAAAAAAAAAA [CACACA_site5546] | 9.615 ± 0.092
39 | TAGATACCTATAGAAACATGCAATTGAATATATTTC [TGCATGCA_site402] | 9.745 ± 0.007
40 | TTCTTACACGTTTGCACACTAAAATATATATATATA [CACACA_site434] | 10.3 ± 0.25
41 | TAATTTTTATTCAAGAGTACACAAAAGATAACTAAA [XGTACX_site4060] | 11.4 ± 0.86
42 | AGGCTGCCATATTATACACACATTTTTAAAAAAATT [CACACA_site3843] | 10.1 ± 0.13
43 | TAAAAATTTACATGTTGTACATATAATTATATAATC [XGTACX_site4577] | 11.1 ± 0.63
